At least one structure is not confirmed: it was looked up by name or label, or the drawing left a doubt. Starred links: 1 amine or outer side, 2 acyl side, 3 side chain; linkers in the order of their positions; H or OH if unused. Non-standard residues stand in square brackets, D forms with d. Residues, ends and D or L forms follow the SMILES beside them. Groups on a side chain read outwards from the residue. *: point of attachment. C20 diacid = O=C(O)CCCCCCCCCCCCCCCCCCC(=O)*; Pro(cis-4-F) = O=C(O)[C@@H]1C[C@H](F)CN1; γGlu = O=C(O)[C@H](CCC(=O)[*:2])N[*:1]; Nle = CCCC[C@H](N)C(=O)O; AEEA = NCCOCCOCC(=O)O
Assays:
hCRHR2 = target: T1, hCRHR2 (Homo sapiens, UniProt Q13324); assay: HTRF cAMP assay, determination of hCRHR2 potency (peptide libraries 5 conc., purified peptides 11 conc.); format: cell-based; details: library peptides, matched molecular pairs L vs Nle in position X^38
T1 sequence (Q13324 1-411): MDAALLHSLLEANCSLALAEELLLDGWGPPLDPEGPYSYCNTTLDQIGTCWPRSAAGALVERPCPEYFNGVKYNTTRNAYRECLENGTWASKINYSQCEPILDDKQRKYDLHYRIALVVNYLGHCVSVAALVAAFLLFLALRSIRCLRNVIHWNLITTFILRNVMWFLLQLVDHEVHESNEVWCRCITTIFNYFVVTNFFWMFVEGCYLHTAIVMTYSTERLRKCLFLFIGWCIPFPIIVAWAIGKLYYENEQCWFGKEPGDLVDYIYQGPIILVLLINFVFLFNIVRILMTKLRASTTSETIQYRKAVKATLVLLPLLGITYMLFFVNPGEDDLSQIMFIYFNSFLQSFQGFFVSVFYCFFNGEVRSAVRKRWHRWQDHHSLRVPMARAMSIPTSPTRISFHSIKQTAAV
Source text: HTRF (CisBio) cAMP assay: The assay technology has thoroughly been described in the CisBio HTRF cAMP assay Kit manual (# 62AM4PEC). Briefly, time resolved fluorescence technic was applied to measure cAMP. This technic is based on a competitive immunoassay using cryptate-labelled anti-cAMP antibody and d2-labeled cAMP. In the absence of cellular cAMP, the anti-cAMP cryptate conjugate may get into proximity to cAMP-d2 conjugate and energy (FRET) can be transferred from cryptate to d2.
CHO-K1 cells stably expressing the human corticotropin-releasing hormone receptor 2 (Eurofins/DiscoverX, Cat #95-0048C2 hCRHR2 stable monoclonal cell lines) were used as cells in suspension, brought to life from frozen cell stocks immediately before assay performance.
Concentration-response evaluation of compounds was performed with 5 concentrations of agonist peptides and EC50 values were calculated by nonlinear regression using sigmoid concentration-response with variable slope.
Concentration-response evaluation of compounds was performed with 11 concentrations of agonist peptides and EC50 values were calculated by nonlinear regression using sigmoid concentration-response with variable slope.

hCRHR1 = target: T2, hCRHR1 (Homo sapiens, UniProt P34998); assay: HTRF cAMP assay, determination of hCRHR1 potency (peptide libraries 5 conc., purified peptides 11 conc.); format: cell-based; details: library peptides, matched molecular pairs L vs Nle in position X^38
T2 sequence (P34998 24-415): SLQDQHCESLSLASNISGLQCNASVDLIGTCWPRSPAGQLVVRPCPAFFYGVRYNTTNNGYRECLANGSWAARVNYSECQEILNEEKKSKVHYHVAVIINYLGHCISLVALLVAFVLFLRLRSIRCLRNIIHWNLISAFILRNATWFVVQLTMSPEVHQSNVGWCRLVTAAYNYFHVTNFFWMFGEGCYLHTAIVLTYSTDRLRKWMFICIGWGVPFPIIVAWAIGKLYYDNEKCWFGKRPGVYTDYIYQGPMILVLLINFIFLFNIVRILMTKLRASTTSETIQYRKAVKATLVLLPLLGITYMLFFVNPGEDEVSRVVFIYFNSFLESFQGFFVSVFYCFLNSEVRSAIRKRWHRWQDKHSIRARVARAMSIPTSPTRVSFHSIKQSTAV
Source text: HTRF (CisBio) cAMP assay: The assay technology has thoroughly been described in the CisBio HTRF cAMP assay Kit manual (# 62AM4PEC). Briefly, time resolved fluorescence technic was applied to measure cAMP. This technic is based on a competitive immunoassay using cryptate-labelled anti-cAMP antibody and d2-labeled cAMP. In the absence of cellular cAMP, the anti-cAMP cryptate conjugate may get into proximity to cAMP-d2 conjugate and energy (FRET) can be transferred from cryptate to d2. CHO-K1 cells stably expressing the human corticotropin-releasing hormone receptor 1 (Eurofins/DiscoverX Cat #95-0047C2 hCRHR1 stable monoclonal cell lines) were used as cells in suspension, brought to life from frozen cell stocks immediately before assay performance. […] Concentration-response evaluation of compounds was performed with 5 concentrations of agonist peptides and EC50 values were calculated by nonlinear regression using sigmoid concentration-response with variable slope. Concentration-response evaluation of compounds was performed with 11 concentrations of agonist peptides and EC50 values were calculated by nonlinear regression using sigmoid concentration-response with variable slope.

CC[C@H](C)[C@H](N)C(=O)N[C@H](C(=O)N[C@@H](CC(C)C)C(=O)N[C@@H](CO)C(=O)N[C@@H](CC(C)C)C(=O)N[C@@H](CC(=O)O)C(=O)N[C@H](C(=O)N1CCC[C@H]1C(=O)N[C@H](C(=O)NCC(=O)N[C@@H](CC(C)C)C(=O)N[C@@H](CC(C)C)C(=O)N[C@@H](CCC(N)=O)C(=O)N[C@H](C(=O)N[C@@H](CC(C)C)C(=O)N[C@@H](CC(C)C)C(=O)N[C@@H](CO)C(=O)N[C@@H](CCC(N)=O)C(=O)N[C@@H](C)C(=O)N[C@@H](CCCNC(=N)N)C(=O)N[C@@H](C)C(=O)N[C@@H](CCCNC(=N)N)C(=O)N[C@H](C(=O)N[C@@H](C)C(=O)N[C@@H](CCCNC(=N)N)C(=O)N[C@@H](CCC(=O)O)C(=O)N[C@@H](CCC(N)=O)C(=O)N[C@@H](C)C(=O)N[C@@H](CCCCNC(=O)COCCOCCNC(=O)COCCOCCNC(=O)CC[C@H](NC(=O)CC[C@H](NC(=O)CCCCCCCCCCCCCCCCCCC(=O)O)C(=O)O)C(=O)O)C(=O)N[C@H](C(=O)N[C@@H](CC(N)=O)C(=O)N[C@@H](C)C(=O)N[C@@H](CCC(=O)O)C(=O)N[C@H](C(=O)N[C@@H](CC(C)C)C(=O)N[C@@H](C)C(=O)N[C@@H](CCC(=O)O)C(=O)N[C@H](C(N)=O)C(C)C)[C@@H](C)CC)[C@@H](C)O)[C@@H](C)CC)[C@@H](C)CC)[C@@H](C)CC)C(C)C)C(C)C [compound 94] (H-IVLSLDVPIGLLQILLSQARARIAREQAK([AEEA-AEEA-γGlu-γGlu-C20 diacid])TNAEILAEV-NH2; N-terminus assumed)
Potency hCRHR2 pEC50 (hCRHR2): 9.0
Potency hCRHR1 pEC50 (hCRHR1): 3.4

CCCC[C@H](NC(=O)[C@@H](NC(=O)[C@H](CCC(=O)O)NC(=O)[C@H](C)NC(=O)[C@H](CC(N)=O)NC(=O)[C@@H](NC(=O)[C@H](CCCCNC(=O)COCCOCCNC(=O)COCCOCCNC(=O)CC[C@H](NC(=O)CC[C@H](NC(=O)CCCCCCCCCCCCCCCCCCC(=O)O)C(=O)O)C(=O)O)NC(=O)[C@H](C)NC(=O)[C@H](CCC(N)=O)NC(=O)[C@H](CCC(=O)O)NC(=O)[C@H](CCCNC(=N)N)NC(=O)[C@H](C)NC(=O)[C@H](C)NC(=O)[C@H](CCCNC(=N)N)NC(=O)[C@H](C)NC(=O)[C@H](CCCNC(=N)N)NC(=O)[C@H](C)NC(=O)[C@H](CCC(N)=O)NC(=O)[C@H](CCC(=O)O)NC(=O)[C@H](CC(C)C)NC(=O)[C@H](CC(C)C)NC(=O)[C@@H](NC(=O)[C@H](CCC(N)=O)NC(=O)[C@H](CC(C)C)NC(=O)[C@H](CC(C)C)NC(=O)CNC(=O)[C@@H](NC(=O)[C@@H]1C[C@H](F)CN1C(=O)[C@@H](NC(=O)[C@H](CC(=O)O)NC(=O)[C@H](CC(C)C)NC(=O)[C@H](CO)NC(=O)[C@H](CC(C)C)NC(=O)[C@@H](NC(=O)[C@@H](N)[C@@H](C)CC)C(C)C)C(C)C)[C@@H](C)CC)[C@@H](C)CC)[C@@H](C)O)[C@@H](C)CC)C(=O)N[C@@H](C)C(=O)N[C@@H](CCC(=O)O)C(=O)N[C@H](C(N)=O)C(C)C [compound 103] (H-IVLSLDV[Pro(cis-4-F)]IGLLQILLEQARARAAREQAK([AEEA-AEEA-γGlu-γGlu-C20 diacid])TNAEI[Nle]AEV-NH2; N-terminus assumed)
Potency hCRHR2 pEC50 (hCRHR2): 9.4
Potency hCRHR1 pEC50 (hCRHR1): 8.7

CC[C@H](C)[C@H](N)C(=O)N[C@H](C(=O)N[C@@H](CC(C)C)C(=O)N[C@@H](CO)C(=O)N[C@@H](CC(C)C)C(=O)N[C@@H](CC(=O)O)C(=O)N[C@H](C(=O)N1C[C@@H](F)C[C@H]1C(=O)N[C@H](C(=O)NCC(=O)N[C@@H](CC(C)C)C(=O)N[C@@H](CC(C)C)C(=O)N[C@@H](CCC(N)=O)C(=O)N[C@H](C(=O)N[C@@H](CC(C)C)C(=O)N[C@@H](CC(C)C)C(=O)N[C@@H](CCC(=O)O)C(=O)N[C@@H](CCC(N)=O)C(=O)N[C@@H](C)C(=O)N[C@@H](CCCNC(=N)N)C(=O)N[C@@H](C)C(=O)N[C@@H](CCCNC(=N)N)C(=O)N[C@H](C(=O)N[C@@H](C)C(=O)N[C@@H](CCCNC(=N)N)C(=O)N[C@@H](CCC(=O)O)C(=O)N[C@@H](CCC(N)=O)C(=O)N[C@@H](C)C(=O)N[C@@H](CCCCNC(=O)COCCOCCNC(=O)COCCOCCNC(=O)CC[C@H](NC(=O)CC[C@H](NC(=O)CCCCCCCCCCCCCCCCCCC(=O)O)C(=O)O)C(=O)O)C(=O)N[C@H](C(=O)N[C@@H](CC(N)=O)C(=O)N[C@@H](C)C(=O)N[C@@H](CCC(=O)O)C(=O)N[C@H](C(=O)N[C@@H](CC(C)C)C(=O)N[C@@H](C)C(=O)N[C@@H](CCC(=O)O)C(=O)N[C@H](C(N)=O)C(C)C)[C@@H](C)CC)[C@@H](C)O)C(C)C)[C@@H](C)CC)[C@@H](C)CC)C(C)C)C(C)C [compound 106] (H-IVLSLDV[Pro(cis-4-F)]IGLLQILLEQARARVAREQAK([AEEA-AEEA-γGlu-γGlu-C20 diacid])TNAEILAEV-NH2; N-terminus assumed)
Potency hCRHR2 pEC50 (hCRHR2): 9.0
Potency hCRHR1 pEC50 (hCRHR1): 3.8

CC[C@H](C)[C@H](N)C(=O)N[C@H](C(=O)N[C@@H](CC(C)C)C(=O)N[C@@H](CO)C(=O)N[C@@H](CC(C)C)C(=O)N[C@@H](CC(=O)O)C(=O)N[C@H](C(=O)N1C[C@@H](F)C[C@H]1C(=O)N[C@H](C(=O)NCC(=O)N[C@@H](CC(C)C)C(=O)N[C@@H](CC(C)C)C(=O)N[C@@H](CCC(N)=O)C(=O)N[C@H](C(=O)N[C@@H](CC(C)C)C(=O)N[C@@H](CC(C)C)C(=O)N[C@@H](CCC(=O)O)C(=O)N[C@@H](CCC(N)=O)C(=O)N[C@@H](C)C(=O)N[C@@H](CCCNC(=N)N)C(=O)N[C@@H](C)C(=O)N[C@@H](CCCNC(=N)N)C(=O)N[C@@H](CC(N)=O)C(=O)N[C@@H](C)C(=O)N[C@@H](CCCNC(=N)N)C(=O)N[C@@H](CCC(=O)O)C(=O)N[C@@H](CCC(N)=O)C(=O)N[C@@H](C)C(=O)N[C@@H](CCCCNC(=O)COCCOCCNC(=O)COCCOCCNC(=O)CC[C@H](NC(=O)CC[C@H](NC(=O)CCCCCCCCCCCCCCCCCCC(=O)O)C(=O)O)C(=O)O)C(=O)N[C@H](C(=O)N[C@@H](CC(N)=O)C(=O)N[C@@H](C)C(=O)N[C@@H](CCC(=O)O)C(=O)N[C@H](C(=O)N[C@@H](CC(C)C)C(=O)N[C@@H](C)C(=O)N[C@@H](CCC(=O)O)C(=O)N[C@H](C(N)=O)C(C)C)[C@@H](C)CC)[C@@H](C)O)[C@@H](C)CC)[C@@H](C)CC)C(C)C)C(C)C [compound 96] (H-IVLSLDV[Pro(cis-4-F)]IGLLQILLEQARARNAREQAK([AEEA-AEEA-γGlu-γGlu-C20 diacid])TNAEILAEV-NH2; N-terminus assumed)
Potency hCRHR2 pEC50 (hCRHR2): 8.7
Potency hCRHR1 pEC50 (hCRHR1): 3.7
